Source: article PMC7156261 (Journal of medicinal chemistry, 2019)

Molecular target: TEM-1 β-lactamase R164S (Escherichia coli, UniProt P62593, R162S)
Assay: DSF shift in Tm after incubation with moxalactam, R164S
Format: binding
Settings: R164S (printed R163S), 100-fold molar excess moxalactam

## CO[C@@]1(NC(=O)[C@H](C(=O)O)c2ccc(O)cc2)C(=O)N2C(C(=O)O)=C(CSc3nnnn3C)CO[C@@H]21 [moxalactam]
  destabilization (lowering of Tm): 3.3 °C
